# Measured values reported in the supplement of paper PMC7335073.
# The full ranking holds about 4,100 sequences; the median of “relative CpG methylation activity (normalised to average over all NNNCGNNN flanks)” is about 0.94, and the highest 2% start at about 1.9. This is one part of the list.
# Biological target: DNMT3B catalytic domain (mouse) (UniProt O88509)
# Assay: relative CpG methylation activity (normalised to average over all NNNCGNNN flanks) (relative (1 = mean)); higher = more methylation of the central CpG
# Conditions: system: in vitro, murine catalytic domain; CpG state: hemimethylated substrate pool; residues: 558-859
# Protocol: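 Deep enzymology: a pool of dsDNA substrates with a central CpG flanked by 10 random nucleotides on each side was methylated by the murine DNMT3A or DNMT3B catalytic domain (0.8 mM SAM, 37 °C, 60 min). Methylation was then read out by hairpin ligation, bisulfite conversion and NGS. Values are the average methylation of each NNNCGNNN context (±3 flanks; the outer flanks are random and averaged over), normalised to the overall mean, so 1 = average activity.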
# Sequence of UniProt O88509 (O88509 558-859): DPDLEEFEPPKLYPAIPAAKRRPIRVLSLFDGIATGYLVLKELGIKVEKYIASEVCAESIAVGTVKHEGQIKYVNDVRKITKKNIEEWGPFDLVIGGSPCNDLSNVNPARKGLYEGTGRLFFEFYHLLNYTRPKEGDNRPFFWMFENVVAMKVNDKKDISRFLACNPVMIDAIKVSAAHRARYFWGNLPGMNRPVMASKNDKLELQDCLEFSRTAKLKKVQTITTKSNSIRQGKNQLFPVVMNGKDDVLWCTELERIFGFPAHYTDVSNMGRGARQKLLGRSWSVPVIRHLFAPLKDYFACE
row,Sequence,relative CpG methylation activity
1,GATCGTCC,0.775
2,GTGCGTAT,0.76
3,TTTCGTTT,0.781
4,CCGCGTGG,0.387
5,TTTCGGCC,1.65
6,TCCCGTTT,0.489
7,CATCGGTT,1.34
8,CTACGCCA,1.78
9,CAACGGGC,1.82
10,AAACGGAG,0.828
11,TTACGTAA,1.15
12,AGCCGTAC,0.381
13,GCACGCAT,0.786
14,AGCCGACT,0.736
15,CTGCGGTG,1.14
16,AGCCGGTT,0.481
17,TATCGATG,1.71
18,CGTCGAAT,1.35
19,TCACGTCA,1.11
20,GCGCGCAT,0.495
21,CCGCGGTC,1.43
22,GGGCGTGA,0.157
23,GGGCGTAT,0.545
24,ATCCGTGT,0.477
25,ACTCGAAG,0.938

row,Sequence,relative CpG methylation activity
1,TTACGTCA,1.59
2,ACCCGCGT,0.44
3,TTGCGTTC,0.96
4,TATCGTAT,0.351
5,AAGCGGTT,0.724
6,TAGCGCGA,0.272
7,CATCGAGT,1.5
8,TTTCGTAC,1.4
9,CCCCGAGT,1.79
10,AGTCGTGG,0.341
11,TGGCGCCC,0.691
12,TGTCGCAG,0.408
13,GTACGGTG,1.48
14,AGCCGATA,1.09
15,ATTCGTGA,0.279
16,GCACGAAA,1.55
17,TTACGTCC,1.93
18,CAACGCAT,0.973
19,TTTCGTAG,0.862
20,TCCCGGTA,1.34
21,AAACGCTT,1.17
22,GTACGACT,1.46
23,ATCCGCCG,0.929
24,AAGCGTGT,0.216
25,TCTCGGAC,0.926

row,Sequence,relative CpG methylation activity
1,GGCCGTGC,0.358
2,TAGCGTGG,0.258
3,CCGCGCAG,0.423
4,GTCCGGAT,1.08
5,ATTCGCGC,0.947
6,TTTCGAAT,1.49
7,GACCGATC,1.45
8,GAACGCAG,0.706
9,GAACGGTC,1.59
10,GCCCGCAT,0.526
11,TCCCGGAG,0.833
12,GGTCGAAT,0.687
13,CATCGGGT,1.25
14,TATCGCCA,0.791
15,TATCGACA,1.35
16,CTACGCCG,1.71
17,TGCCGCCC,0.54
18,CCCCGGAT,1.03
19,TCGCGCAG,0.504
20,AGACGAAA,1.21
21,AAGCGAAT,0.703
22,CCTCGGGA,1.54
23,TCTCGCGA,0.666
24,GCGCGCTA,0.519
25,CACCGTCA,0.471

row,Sequence,relative CpG methylation activity
1,GGTCGAAC,1.11
2,GTACGTCT,1.25
3,GTACGGAT,1.48
4,ACACGATT,1.73
5,ATGCGAGC,1.55
6,TATCGACT,1.61
7,GCACGTAC,1.19
8,TCCCGTAG,0.445
9,GAACGGCA,1.84
10,ATTCGGCA,1.86
11,AAGCGTCA,0.495
12,GGCCGCCC,0.29
13,CCGCGAGA,1.34
14,GAGCGCAA,0.386
15,GTCCGGTT,1.47
16,TAGCGGAT,0.718
17,GAGCGGCT,1.13
18,TCGCGGAG,0.754
19,GTGCGGGT,1.3
20,TATCGTGA,0.224
21,ACCCGTGT,0.42
22,GCCCGGCG,1.55
23,ATGCGGTC,1.57
24,GTACGTAA,0.995
25,GTACGGGT,1.85

row,Sequence,relative CpG methylation activity
1,TGGCGCTT,0.368
2,TACCGCTC,0.833
3,TTGCGGGT,1.43
4,CCTCGCAT,0.611
5,TGCCGGAC,0.65
6,GCGCGATC,1.23
7,CAGCGCCT,0.884
8,GTGCGGCC,1.04
9,AGGCGTCC,0.475
10,AAGCGAAG,0.431
11,TACCGGAG,0.505
12,TGACGCCA,1.07
13,GGGCGGAT,0.147
14,GCTCGCCT,0.739
15,TACCGCCA,0.619
16,GGTCGGCC,1.57
17,ATGCGTAC,0.865
18,TTTCGGCA,1.69
19,CGCCGAAC,1.04
20,ATTCGACC,1.48
21,AAACGATT,1.73
22,CAGCGAGG,0.679
23,TATCGTCG,0.711
24,GATCGAAG,0.884
25,GAGCGCTA,0.566

row,Sequence,relative CpG methylation activity
1,ATGCGAGT,0.909
2,GACCGTCC,0.676
3,CCACGCGG,0.807
4,GATCGCTT,0.747
5,ACTCGTGC,0.576
6,AGTCGGCG,1.55
7,ACTCGCCT,0.821
8,GGACGCAC,0.71
9,CAGCGAAT,0.681
10,ACACGAAT,1.42
11,GGTCGCGA,0.143
12,GGTCGTGG,0.302
13,TCGCGCTT,0.749
14,TAGCGACA,0.768
15,ACACGATG,1.42
16,ACCCGAGG,1.57
17,GCCCGAGT,1.45
18,TTGCGGGG,1.09
19,GAGCGACC,0.806
20,AAACGGTA,1.52
21,TGGCGTCC,0.637
22,TCACGCGT,1.03
23,GGTCGGGG,0.992
24,GGACGCGA,0.585
25,GAGCGAGA,0.772

row,Sequence,relative CpG methylation activity
1,GAACGCAT,0.939
2,CGCCGATA,1.14
3,GATCGTAG,0.252
4,GAGCGACG,0.449
5,AGGCGACC,0.788
6,CAACGCAA,0.772
7,CGTCGTCC,0.711
8,AGGCGTAT,0.55
9,ATTCGGCG,1.77
10,AGGCGAGC,1.03
11,CACCGACG,1.08
12,TAGCGTGC,0.453
13,CTTCGCCC,1.36
14,CCCCGACT,1.33
15,CCACGGTG,1.26
16,GTACGGCA,1.9
17,CAACGGAA,1.23
18,TAGCGACT,0.872
19,GTCCGGCA,1.75
20,GTGCGACA,1.22
21,CGGCGCAG,0.389
22,TAGCGAGG,1.1
23,CCCCGCCC,1.18
24,TGGCGCAC,0.391
25,GATCGTCG,0.307

row,Sequence,relative CpG methylation activity
1,CAACGGGT,1.31
2,AGTCGGAC,0.688
3,GAGCGCTC,0.931
4,GTCCGATC,1.77
5,CATCGCTC,0.899
6,GATCGTTC,0.514
7,CGCCGTTG,0.16
8,TAACGGTA,1.43
9,AACCGTCA,0.375
10,GTCCGACT,1.32
11,TACCGTCG,0.394
12,GCCCGGGG,1.47
13,CGGCGCCT,0.501
14,CTCCGATA,1.72
15,TCTCGTGG,0.258
16,ACTCGAAC,1.52
17,GGCCGACT,0.91
18,AGTCGTCC,0.747
19,CACCGTTC,0.738
20,CCTCGCCT,1.09
21,TCTCGGGT,1.12
22,AATCGTTA,0.41
23,ATTCGAAA,1.39
24,GAACGGCT,1.81
25,CCGCGGTG,0.786

row,Sequence,relative CpG methylation activity
1,TGACGAGT,1.21
2,AATCGACG,1.13
3,GATCGAAT,1.25
4,TTACGAGG,1.8
5,CGACGACA,1.04
6,TAGCGTTG,0.475
7,TCCCGGGT,1.03
8,TCGCGCCG,0.635
9,CAACGACT,1.61
10,GGTCGGCT,1.34
11,ACTCGCTT,0.73
12,CTGCGGTC,1.14
13,TGACGCCC,1.15
14,TGCCGATG,0.821
15,TTACGGTA,2.02
16,CCACGGCT,1.89
17,GCGCGGAC,0.712
18,AGACGGAA,0.982
19,TCACGTTA,0.705
20,ATTCGGGC,1.72
21,GACCGACA,0.92
22,AATCGTAC,0.777
23,TGTCGGTG,1.19
24,GACCGAGC,1.54
25,GTCCGTCA,0.708

row,Sequence,relative CpG methylation activity
1,CAACGTAT,1.18
2,CAGCGTTC,0.595
3,TCACGAGT,1.49
4,GTGCGAGA,1.48
5,AGCCGCGT,0.163
6,ATGCGGTG,0.768
7,GTGCGTCA,0.799
8,TAACGTAA,0.822
9,ACACGCGA,0.897
10,GCTCGACG,1.17
11,AAACGGTT,1.59
12,CCACGGGG,1.73
13,TTACGTAG,1.19
14,ACTCGTGG,0.128
15,ATACGCTT,1.51
16,TAACGGAC,1.52
17,TTCCGCTA,1.23
18,AAACGAAT,1.46
19,GTGCGGTC,1.18
20,GGTCGCTC,0.726
21,AAACGTAA,0.775
22,ACACGAGG,1.64
23,AGTCGGGC,1.26
24,TGGCGGCT,0.825
25,CCCCGCAG,0.691

row,Sequence,relative CpG methylation activity
1,ATGCGTGT,0.375
2,CACCGCTC,0.971
3,CGGCGTAT,0.244
4,GGCCGTCA,0.271
5,ACCCGGCT,1.67
6,CTTCGTGA,0.565
7,CAGCGGGC,1.23
8,AGGCGCCA,0.403
9,CAACGGCT,1.92
10,TTCCGCTT,1.11
11,TGTCGATT,1.27
12,CTACGAGA,1.96
13,TATCGGTT,1.28
14,AATCGCGC,0.663
15,AAACGAAA,1.58
16,CGGCGGCT,0.862
17,GTACGGCG,2.05
18,CCTCGCTG,0.573
19,CGGCGCCA,0.538
20,GCCCGGTC,1.38
21,GAACGGTG,1.16
22,GACCGGGA,0.885
23,TCTCGCCG,0.85
24,TCCCGTTA,0.532
25,TACCGGGA,1.1

row,Sequence,relative CpG methylation activity
1,CGCCGACT,1.07
2,GAGCGAAT,1.01
3,TCTCGCGG,0.647
4,AGCCGTCG,0.254
5,ATCCGAAC,1.63
6,CATCGCTT,1.01
7,CAACGCTT,1.18
8,TATCGACC,1.45
9,CACCGGAT,0.755
10,ATTCGTAG,0.332
11,AGACGAGT,1.68
12,AACCGAGA,1.29
13,TTGCGCCA,1.02
14,GAGCGGCG,1.08
15,AGCCGAAT,0.659
16,CTTCGGTG,1.46
17,CTGCGTAA,0.888
18,GCACGTGT,0.344
19,TATCGATT,1.84
20,ACGCGAGC,1.24
21,TTCCGCGG,0.777
22,AGGCGCCT,0.571
23,CACCGGCT,1.63
24,TGACGGAT,0.829
25,TTGCGGTC,1.65

row,Sequence,relative CpG methylation activity
1,CTTCGAGG,1.65
2,AGACGTCC,1.13
3,CACCGGGG,0.801
4,AGACGAGC,1.8
5,CTGCGCTA,0.872
6,CAACGGGA,1.82
7,TCGCGAAA,0.764
8,ACACGATC,1.75
9,TTTCGCTA,1.16
10,GTGCGTGC,0.743
11,CTCCGCAA,0.709
12,CCTCGAGG,1.6
13,GTCCGGAC,1.17
14,TGCCGCCG,0.486
15,ACTCGCTG,0.495
16,TCCCGTGT,0.497
17,GAGCGCAC,0.496
18,TGCCGCCA,0.429
19,GAGCGACA,0.656
20,GCCCGCCC,0.94
21,CCCCGTCG,0.883
22,TCGCGATT,0.953
23,TACCGCGG,0.374
24,AACCGCAA,0.243
25,ACACGGCG,1.6

row,Sequence,relative CpG methylation activity
1,ACCCGGAT,0.954
2,ACGCGTAA,0.539
3,TAGCGATG,0.904
4,AGTCGTCA,0.379
5,GAGCGGTC,1.08
6,GATCGTAC,0.775
7,CGTCGAAA,1.21
8,GGCCGAAC,1.09
9,TGGCGATA,0.923
10,CGGCGGGA,0.773
11,ATACGCCA,1.68
12,CTTCGTAG,0.575
13,GTTCGCGA,0.579
14,TTACGGCA,2.04
15,CTTCGATA,1.56
16,ACCCGGAG,0.708
17,TGGCGCGC,0.299
18,TACCGATC,1.57
19,GTCCGCGT,0.627
